According to PMC12820563, “FoxP3 forms a head-to-head dimer in vivo and stabilizes its multimerization on adjacent microsatellites”:
This is one part of the list.

The sequences below were run against T1, MBP-FoxP1dN (Mus musculus, UniProt P58462 326-579) (assay: PD-seq (MBP pull-down with sequencing); 20 mM Tris-HCl pH 7.5, 100 mM NaCl, 1.5 mM MgCl2, 0.4 uM protein, 0.1 uM dsDNA library, 30 min, room temperature, amylose pull-down; high values mean tight binding). Conditions: protein: recombinant; tags: His6-MBP; chain copies: 2; dsDNA, one strand shown.
T1 sequence: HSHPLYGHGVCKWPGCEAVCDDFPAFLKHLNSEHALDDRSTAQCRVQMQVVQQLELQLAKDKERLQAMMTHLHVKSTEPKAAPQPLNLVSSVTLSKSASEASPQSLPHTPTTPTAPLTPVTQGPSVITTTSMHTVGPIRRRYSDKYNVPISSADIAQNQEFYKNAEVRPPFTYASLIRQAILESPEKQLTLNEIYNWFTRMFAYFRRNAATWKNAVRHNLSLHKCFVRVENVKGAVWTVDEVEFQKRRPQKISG
How it was run: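 Binding is reads-per-million enrichment of pull-down over input, with replicates pooled. It comes from 30 min room-temperature incubation in Tris pH 7.5 buffer with NaCl and MgCl2 of 0.4 µM His6-MBP-tagged, N-terminally truncated mouse FoxP3 or FoxP1 fragment from E. coli with 0.1 µM Klenow-filled degenerate double-stranded DNA library, followed by amylose resin capture, three washes and Illumina sequencing of the released DNA.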

Sequence	binding signal
GATGATTGTTCTCCCAGCTGATGAATTTTCAACCTCGAGTAAACAAATTTTCCTAATCTTTCTGTTCAAGCGCCATCTAC	0.858 RPM ratio (pull-down/input)
GATGATTGTTCTCCCAGCTGATGAATTTCAAACATCGAGTAAACAAATTTTCCTAATCTTTCTGTTCAAGCGCCATCTAC	1.18 RPM ratio (pull-down/input)
GATGATTGTTCTCCCAGCTGATGAATTTTTCTGATCGAGTAAACAAATTTTCCTAATCTTTCTGTTCAAGCGCCATCTAC	0.867 RPM ratio (pull-down/input)
GATGATTGTTCTCCCAGCTGATGAATTGTTAAGCTCGAGTAAACAAATTTTCCTAATCTTTCTGTTCAAGCGCCATCTAC	0.991 RPM ratio (pull-down/input)
GATGATTGTTCTCCCAGCTGATGAATTCAACATTTCGAGTAAACAAATTTTCCTAATCTTTCTGTTCAAGCGCCATCTAC	0.941 RPM ratio (pull-down/input)
GATGATTGTTCTCCCAGCTGATGAATTTAAAGGGTCGAGTAAACAAATTTTCCTAATCTTTCTGTTCAAGCGCCATCTAC	0.811 RPM ratio (pull-down/input)
GATGATTGTTCTCCCAGCTGATGAATTCCAGTCCTCGAGTAAACAAATTTTCCTAATCTTTCTGTTCAAGCGCCATCTAC	0.794 RPM ratio (pull-down/input)
GATGATTGTTCTCCCAGCTGATGAATTAAGTGGGTCGAGTAAACAAATTTTCCTAATCTTTCTGTTCAAGCGCCATCTAC	0.972 RPM ratio (pull-down/input)
GATGATTGTTCTCCCAGCTGATGAATTCCAGATCTCGAGTAAACAAATTTTCCTAATCTTTCTGTTCAAGCGCCATCTAC	0.753 RPM ratio (pull-down/input)
GATGATTGTTCTCCCAGCTGATGAATTTCAAATGTCGAGTAAACAAATTTTCCTAATCTTTCTGTTCAAGCGCCATCTAC	0.847 RPM ratio (pull-down/input)
GATGATTGTTCTCCCAGCTGATGAATTCCTCACCTCGAGTAAACAAATTTTCCTAATCTTTCTGTTCAAGCGCCATCTAC	0.754 RPM ratio (pull-down/input)
GATGATTGTTCTCCCAGCTGATGAATTCTGAGCATCGAGTAAACAAATTTTCCTAATCTTTCTGTTCAAGCGCCATCTAC	1.06 RPM ratio (pull-down/input)
GATGATTGTTCTCCCAGCTGATGAATTCACTTGATCGAGTAAACAAATTTTCCTAATCTTTCTGTTCAAGCGCCATCTAC	0.902 RPM ratio (pull-down/input)
GATGATTGTTCTCCCAGCTGATGAATTAATAAATTCGAGTAAACAAATTTTCCTAATCTTTCTGTTCAAGCGCCATCTAC	1.17 RPM ratio (pull-down/input)
GATGATTGTTCTCCCAGCTGATGAATTTGTCTTGTCGAGTAAACAAATTTTCCTAATCTTTCTGTTCAAGCGCCATCTAC	1.11 RPM ratio (pull-down/input)
GATGATTGTTCTCCCAGCTGATGAATTAGTGGATTCGAGTAAACAAATTTTCCTAATCTTTCTGTTCAAGCGCCATCTAC	0.961 RPM ratio (pull-down/input)

Sequence	binding signal
GATGATTGTTCTCCCAGCTGATGAATTGGCAATATCGAGTAAACAAATTTTCCTAATCTTTCTGTTCAAGCGCCATCTAC	1.16 RPM ratio (pull-down/input)
GATGATTGTTCTCCCAGCTGATGAATTGAAGTGATCGAGTAAACAAATTTTCCTAATCTTTCTGTTCAAGCGCCATCTAC	0.877 RPM ratio (pull-down/input)
GATGATTGTTCTCCCAGCTGATGAATTCTTGTGATCGAGTAAACAAATTTTCCTAATCTTTCTGTTCAAGCGCCATCTAC	1.15 RPM ratio (pull-down/input)
GATGATTGTTCTCCCAGCTGATGAATTCACCTCCTCGAGTAAACAAATTTTCCTAATCTTTCTGTTCAAGCGCCATCTAC	0.774 RPM ratio (pull-down/input)
GATGATTGTTCTCCCAGCTGATGAATTATGCGCCTCGAGTAAACAAATTTTCCTAATCTTTCTGTTCAAGCGCCATCTAC	1.13 RPM ratio (pull-down/input)
GATGATTGTTCTCCCAGCTGATGAATTAGCCAAGTCGAGTAAACAAATTTTCCTAATCTTTCTGTTCAAGCGCCATCTAC	0.791 RPM ratio (pull-down/input)
GATGATTGTTCTCCCAGCTGATGAATTGAATGCGTCGAGTAAACAAATTTTCCTAATCTTTCTGTTCAAGCGCCATCTAC	1.14 RPM ratio (pull-down/input)
GATGATTGTTCTCCCAGCTGATGAATTGCGCAACTCGAGTAAACAAATTTTCCTAATCTTTCTGTTCAAGCGCCATCTAC	1.16 RPM ratio (pull-down/input)
GATGATTGTTCTCCCAGCTGATGAATTATCCTATTCGAGTAAACAAATTTTCCTAATCTTTCTGTTCAAGCGCCATCTAC	0.973 RPM ratio (pull-down/input)
GATGATTGTTCTCCCAGCTGATGAATTGACACGGTCGAGTAAACAAATTTTCCTAATCTTTCTGTTCAAGCGCCATCTAC	1.06 RPM ratio (pull-down/input)
GATGATTGTTCTCCCAGCTGATGAATTAGCTACTTCGAGTAAACAAATTTTCCTAATCTTTCTGTTCAAGCGCCATCTAC	0.921 RPM ratio (pull-down/input)
GATGATTGTTCTCCCAGCTGATGAATTTGGCTCCTCGAGTAAACAAATTTTCCTAATCTTTCTGTTCAAGCGCCATCTAC	0.857 RPM ratio (pull-down/input)
GATGATTGTTCTCCCAGCTGATGAATTCATGTAATCGAGTAAACAAATTTTCCTAATCTTTCTGTTCAAGCGCCATCTAC	1.5 RPM ratio (pull-down/input)
GATGATTGTTCTCCCAGCTGATGAATTGTTGCGGTCGAGTAAACAAATTTTCCTAATCTTTCTGTTCAAGCGCCATCTAC	1.28 RPM ratio (pull-down/input)
GATGATTGTTCTCCCAGCTGATGAATTCGTCCTTTCGAGTAAACAAATTTTCCTAATCTTTCTGTTCAAGCGCCATCTAC	0.845 RPM ratio (pull-down/input)
GATGATTGTTCTCCCAGCTGATGAATTTCGGCCTTCGAGTAAACAAATTTTCCTAATCTTTCTGTTCAAGCGCCATCTAC	0.824 RPM ratio (pull-down/input)
